PubChem BioAssay AID485281 (National Center for Advancing Translational Sciences (NCATS), 2010)
Screen size: about 350,000 compounds; about 260 (0.074%) were called active. The shares of active, inactive and inconclusive entries below differ from those in the screen. The call rests on the fitted dose curve; in most records, active means well fitted inhibition curve with a large enough effect; inconclusive means small, poorly fitted or top-dose-only effect; inactive means no such curve, though single readings can be large or run the other way. Where the call is inconclusive, the potency comes from a doubtful curve fit.
Further: nearly all actives have a fitted effect of over 20% in size.
Potency means the concentration at half of the fitted maximal effect; tags describe the fitted curve by direction and shape.

The compounds below were run against Ferritin light chain (Equus caballus) (UniProt P02791) (assay: qHTS Assay for Identification of Novel General Anesthetics). Details: apoferritin/1-aminoanthracene competitive binding, fluorescence; series mostly up to 77.5 µM.
Chain of UniProt P02791 (P02791 whole entry, looked up): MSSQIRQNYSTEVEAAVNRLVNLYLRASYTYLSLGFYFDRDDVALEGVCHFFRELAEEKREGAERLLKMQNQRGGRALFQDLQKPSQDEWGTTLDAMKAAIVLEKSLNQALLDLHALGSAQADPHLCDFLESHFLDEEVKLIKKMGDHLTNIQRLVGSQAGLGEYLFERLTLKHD
Outline: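 10 uM apoferritin + 50% sat. 1-AMA, PBS; cpd 10 min RT; Ex380/Em535 endpoint; normalized to free probe vs complex; 4-param Hill fit; propofol titration as pos. ctrl.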
`O=C(OCc1cc(-c2ccccc2)no1)c1ccc2ccccc2n1` was tested, and the Potency was inconclusive: 22.4 µM [inhibitor, partial curve]. In the case of `O=C(CC(=O)c1ccccc1)Nc1ccc2c(c1)OCCO2`, the Potency is reported as inconclusive: 50.1 µM [inhibitor, partial curve]. In the case of `Cc1ccc(S(=O)(=O)Nc2cc(C(C(=O)OC(C)C)C(=O)C(F)(F)F)c(O)c3ccccc23)c(C)c1` (stereo unspecified), the Potency is reported as inconclusive: 25.1 µM [inhibitor, partial curve, poor fit]. In the case of `COc1ccc(S(=O)(=O)NCc2cccs2)cc1`, the Potency is reported as inconclusive: 20 µM [inhibitor, partial curve]. For `O=C(Nc1ccc(S(=O)(=O)N2CCCCC2)cc1)c1ccc(CN2CCOCC2)cc1`, the Potency was inconclusive: 28.2 µM [inhibitor, single point]. With `Cc1ccc(Cl)cc1NC(=O)CCCN1C(=O)CCn2nc(-c3cn(C)c4ccccc34)cc21` the Potency was “inactive”. With `CCc1ccc(OCC(=O)Nc2ccc(-c3cc4ccccc4oc3=O)c(OC)c2)cc1` the Potency was “inactive”. `COc1ccc(NC(=O)c2ccc3c(c2)C(=O)N(CC2CCCO2)C3=O)cc1O` (stereo unspecified) was tested, and the Potency was inconclusive: 35.5 µM [inhibitor, single point]. For `FC(F)(F)c1nc(N2CCCC2)ncc1-c1nnnn1-c1ccccc1`, the Potency was inconclusive: 25.1 µM [inhibitor, partial curve]. For `COc1nccnc1NS(=O)(=O)c1ccc(NC(=S)NC(=O)c2ccc(F)cc2)cc1`, the Potency was “inactive”. With `O=C(COc1ccc(-c2nnco2)cc1)N1CCN(S(=O)(=O)c2ccc3ccccc3c2)CC1` the Potency was “inactive”. In the case of `Cc1noc(-c2ccc(CSCCC(=O)O)cc2)c1NC(=O)OC(C)c1ccccc1Cl` (stereo unspecified), the Potency is reported as “inactive”. With `Cc1ccc(CNc2ccc3c(c2)ncn3C(C)(C)C)cc1` the Potency was inconclusive: 20 µM [inhibitor, partial curve]. With `Cc1cc(C)c(S(=O)(=O)NC2CC3CCC2C3)c(C)c1` (stereo unspecified) the Potency was inconclusive: 28.2 µM [inhibitor, partial curve]. For `COc1ccc2nc(N=NC3=C(O)CC(C)(C)CC3=O)sc2c1`, the Potency was inconclusive: 39.8 µM [inhibitor, single point]. `O=[N+]([O-])c1ccc(N2CCN(Cc3ccc(Br)o3)CC2)cc1` was tested, and the Potency was inconclusive: 28.2 µM [inhibitor, partial curve]. `OC1CCN(Cc2ccc(OCc3ccccc3)cc2)CC1` was tested, and the Potency was inconclusive: 20 µM [inhibitor, partial curve]. In the case of `C/C(N)=C(/C#N)C(=O)CSc1nc2ccc(C)cc2[nH]1`, the Potency is reported as inconclusive: 50.1 µM [inhibitor, single point]. With `CCC(C)Nc1nc(-c2ccc3c(c2)NC(=O)CO3)cs1` (stereo unspecified) the Potency was inconclusive: 31.6 µM [inhibitor, partial curve]. For `Cc1ccc(N2C(=O)C3C4C=CC(CC4)C3C2=O)c([N+](=O)[O-])c1` (stereo unspecified), the Potency was inconclusive: 35.5 µM [inhibitor, partial curve]. With `Cc1ccc(-c2cn(S(=O)(=O)c3ccc(C)cc3)nc2N)cc1` the Potency was inconclusive: 7.94 µM [inhibitor, full curve, poor fit]. For `COc1ccc(CNC(=O)COC(=O)/C=C/c2cccc(Br)c2)cc1OC`, the Potency was inconclusive: 25.1 µM [inhibitor, partial curve]. `COc1ccc(CCNC(=O)c2ccc3c(c2)c(C)c(C)n3Cc2ccccc2)c(OC)c1OC` was tested, and the Potency was “inactive”. In the case of `CCCCCCn1cnc2c(c1=O)c1nc3ccccc3nc1n2/N=C/c1ccco1`, the Potency is reported as inconclusive: 50.1 µM [inhibitor, partial curve, poor fit]. With `CC1CCCCC1NC(=O)c1nnc(Cc2ccc(Cl)cc2)o1` (stereo unspecified) the Potency was inconclusive: 31.6 µM [inhibitor, partial curve]. For `Cc1c(-c2cccc(NC(=O)Nc3ccccc3)c2)nc2ncccn12`, the Potency was “inactive”. With `COc1ccc(/C=N/NC(=O)c2cc3cc(OC)c(OC)cc3[nH]2)cc1` the Potency was “inactive”. With `Cc1cccc(CNc2cc(-c3ccccc3C)ncn2)c1` the Potency was inconclusive: 20 µM [inhibitor, partial curve]. With `Cc1cc(-c2ccc(S(=O)(=O)NCc3ccccc3Cl)s2)on1` the Potency was inconclusive: 31.6 µM [inhibitor, partial curve]. For `Cc1cc(C)cc(OCC(=O)N/N=C/c2ccc([N+](=O)[O-])o2)c1`, the Potency was inconclusive: 35.5 µM [inhibitor, partial curve]. `O=C(NC12CC3CC(CC(C3)C1)C2)c1ccc(COc2ccc(Cl)cc2[N+](=O)[O-])o1` was tested, and the Potency was inconclusive: 14.1 µM [inhibitor, partial curve]. With `CC(C)Cc1ccc(CN2CCCC(NC(=O)c3cccc(-n4cnnc4)c3)C2)cc1` (stereo unspecified) the Potency was inconclusive: 31.6 µM [inhibitor, single point]. For `O=C(CCn1c(=O)sc2ccccc21)NC1=NCCS1`, the Potency was “inactive”. With `N#CC(c1ccc(Cl)cc1)c1nc2ccccc2nc1C(F)(F)F` (stereo unspecified) the Potency was inconclusive: 15.8 µM [inhibitor, partial curve]. For `CCCCCCOC(=O)Nc1ccc(S(=O)(=O)Nc2cccc([N+](=O)[O-])c2)cc1`, the Potency was inconclusive: 20 µM [inhibitor, partial curve]. For `Cc1ccc(C2C3=C(CC(C)(C)CC3=O)NC3=C2C(=O)c2ccccc23)cc1` (stereo unspecified), the Potency was “inactive”. With `CCn1c(CNc2cccc(Cl)c2)nnc1SCC(=O)OC1CCCCC1` the Potency was inconclusive: 35.5 µM [inhibitor, single point]. For `O=C(N/N=C\c1ccc2c(c1)OCO2)c1ccco1`, the Potency was “inactive”. `Cc1ccc(N2C(=O)N(CC(=O)NCc3ccccc3Cl)C(=O)C2C)cc1` (stereo unspecified) was tested, and the Potency was inconclusive: 31.6 µM [inhibitor, partial curve]. With `CCc1ccc(NC(=O)CSC2=Nc3ccccc3C3=NC(CCC(=O)NCCc4ccccc4)C(=O)N23)cc1` (stereo unspecified) the Potency was inconclusive: 5.01 µM [inhibitor, full curve]. `O=[N+]([O-])c1cc(/C=N/N2CCCCC2)ccc1Cl` was tested, and the Potency was inconclusive: 31.6 µM [inhibitor, single point]. With `CCC(=O)N1CCc2cc(S(=O)(=O)NC(CC(C)C)C(=O)Nc3cc(C)ccc3OC)ccc21` (stereo unspecified) the Potency was inconclusive: 35.5 µM [inhibitor, partial curve]. For `Fc1ccccc1OCCCn1ccnc1`, the Potency was inconclusive: 31.6 µM [inhibitor, single point]. For `COc1ccc(OCc2cc(C(=O)NC3CCOC(C)(C)C3)no2)c2ccccc12` (stereo unspecified), the Potency was inconclusive: 35.5 µM [inhibitor, partial curve]. For `COc1cccc(C=Nc2ccccc2C(=O)Nc2ccccc2)c1O`, the Potency was “inactive”. `CN1CC(c2ccccc2Cl)C2(COc3ccccc3C2=O)C12C(=O)Nc1ccccc12` (stereo unspecified) was tested, and the Potency was inconclusive: 1.12 µM [inhibitor, full curve, poor fit]. With `CCCCCCCCOC(=O)c1c(CSC(=N)N)n(C)c2cc(Br)c(OC(C)=O)cc12` the Potency was inconclusive: 50.1 µM [inhibitor, single point]. For `C[C@]12CCC(=O)C=C1CCC1C2C(O)C[C@]2(C)C1CC[C@]2(O)C(=O)COC(=O)CCC(=O)O` (stereo partly specified), the Potency was “inactive”. In the case of `COc1ccc(NCc2cccnc2)cc1`, the Potency is reported as inconclusive: 28.2 µM [inhibitor, single point]. In the case of `CC(C)c1nnc(NC(=O)CCS(=O)(=O)c2nc(-c3cccs3)cc(C(F)(F)F)n2)s1`, the Potency is reported as inconclusive: 25.1 µM [inhibitor, partial curve]. In the case of `COc1ccc(/C=C2\CC/C(=C\c3ccc(OC)c(OC)c3)C2=O)cc1OC`, the Potency is reported as inconclusive: 35.5 µM [inhibitor, partial curve]. For `CCOc1ccc(NC(=O)NCCCn2c(C)nc3cc(C)c(C)cc32)cc1`, the Potency was inconclusive: 44.7 µM [inhibitor, partial curve]. For `COc1ccccc1/C=C/C(=O)OCc1nc2ccccc2c(=O)[nH]1`, the Potency was inconclusive: 28.2 µM [inhibitor, partial curve]. With `CC(C)=CCCC1(C)C=Cc2c(ccc3c2[nH]c2cc(O)c(C)cc23)O1` (stereo unspecified) the Potency was inconclusive: 12.6 µM [inhibitor, partial curve]. With `CCCCc1nn2c(=O)cc(COC(=O)COc3ccc(C)cc3)nc2s1` the Potency was inconclusive: 31.6 µM [inhibitor, partial curve]. For `Cc1cccc(-c2nc(CSc3nncn4c3cc3oc(C)cc34)c(C)o2)c1`, the Potency was “inactive”. For `Fc1ccc(CSc2ccc3nnc(-c4ccccn4)n3n2)cc1`, the Potency was inconclusive: 22.4 µM [inhibitor, partial curve]. `COCCN=C1NN=C(c2ccc(NC(C)=O)cc2)CS1` was tested, and the Potency was “inactive”. With `CC(C)(C)c1ccc(OCCNC(=O)c2ncn[nH]2)cc1` the Potency was inconclusive: 31.6 µM [inhibitor, partial curve]. With `Fc1ccc(-c2nnc(-c3ccc(F)cc3)o2)cc1` the Potency was “inactive”. For `Cc1ccc(-c2csc(N3CCN(c4ccc5nc(-c6ccncc6)n(CCN6CCCCC6)c5c4)CC3)n2)cc1`, the Potency was inconclusive: 50.1 µM [inhibitor, single point]. With `COc1ccc(CCNC(=O)/C=C\c2ccccc2)cc1OC` the Potency was “inactive”. In the case of `CCc1ccc(C2Sc3ccccc3NC3=C2C(=O)c2ccccc23)cc1` (stereo unspecified), the Potency is reported as inconclusive: 5.62 µM [inhibitor, partial curve]. In the case of `COc1cc(/C=N/NC(=O)CNC(=O)c2ccccc2)ccc1OC(=O)c1cccs1`, the Potency is reported as inconclusive: 11.2 µM [inhibitor, partial curve]. For `CCCCOc1ccc(-c2[nH]ncc2C=O)cc1`, the Potency was inconclusive: 31.6 µM [inhibitor, partial curve]. For `CC(C)OC(=O)CSc1nc(Cc2cccs2)nc2ccccc12`, the Potency was inconclusive: 39.8 µM [inhibitor, partial curve].
